We go through 5 molecules from publication PMC11914695.

Amino acid sequences for entries named in this document (tags omitted). A change or cut given only in a name is not applied to a line headed by its entry. Chains listed by the source or under a name are the forms on record and can include a tag or linker. Residues count along the entry.
UniProt P54274: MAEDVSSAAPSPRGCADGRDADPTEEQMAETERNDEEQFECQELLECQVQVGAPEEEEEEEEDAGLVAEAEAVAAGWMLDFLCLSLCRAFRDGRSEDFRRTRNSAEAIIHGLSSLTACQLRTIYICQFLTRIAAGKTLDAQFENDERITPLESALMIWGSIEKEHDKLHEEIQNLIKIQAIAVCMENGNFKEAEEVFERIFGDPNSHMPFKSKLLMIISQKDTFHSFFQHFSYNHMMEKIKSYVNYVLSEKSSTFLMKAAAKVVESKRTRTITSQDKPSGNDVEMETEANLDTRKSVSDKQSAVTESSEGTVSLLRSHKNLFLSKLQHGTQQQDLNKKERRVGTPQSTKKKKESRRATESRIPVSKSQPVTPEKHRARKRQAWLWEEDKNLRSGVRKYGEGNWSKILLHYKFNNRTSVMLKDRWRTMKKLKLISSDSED
Flag-TRF1^shR-ΔHD (P54274, form named): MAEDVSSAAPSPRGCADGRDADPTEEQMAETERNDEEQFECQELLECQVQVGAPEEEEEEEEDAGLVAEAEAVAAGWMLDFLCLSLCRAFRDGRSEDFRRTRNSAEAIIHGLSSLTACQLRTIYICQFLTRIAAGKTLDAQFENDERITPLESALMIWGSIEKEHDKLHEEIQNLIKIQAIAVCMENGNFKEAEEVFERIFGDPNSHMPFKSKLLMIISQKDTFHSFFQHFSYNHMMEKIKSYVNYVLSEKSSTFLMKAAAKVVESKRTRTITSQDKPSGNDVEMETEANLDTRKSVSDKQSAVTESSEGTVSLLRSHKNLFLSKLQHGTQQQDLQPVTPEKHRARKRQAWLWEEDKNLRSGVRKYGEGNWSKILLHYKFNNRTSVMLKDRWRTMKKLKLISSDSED
Flag-TRF1^shR-2D (P54274, form named): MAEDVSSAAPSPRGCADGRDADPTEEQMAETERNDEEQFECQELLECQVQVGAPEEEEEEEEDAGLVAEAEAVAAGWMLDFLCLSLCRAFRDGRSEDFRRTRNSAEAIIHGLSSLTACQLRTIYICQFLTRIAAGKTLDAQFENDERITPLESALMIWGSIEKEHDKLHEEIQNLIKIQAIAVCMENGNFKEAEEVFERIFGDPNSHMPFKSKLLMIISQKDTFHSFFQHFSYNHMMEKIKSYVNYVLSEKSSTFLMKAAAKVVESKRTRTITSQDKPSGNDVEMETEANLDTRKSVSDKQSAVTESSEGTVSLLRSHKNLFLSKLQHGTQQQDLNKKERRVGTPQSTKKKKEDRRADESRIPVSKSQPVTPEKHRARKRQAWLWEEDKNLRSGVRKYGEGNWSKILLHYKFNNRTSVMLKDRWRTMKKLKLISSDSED
Flag-TRF1^shR-2A (P54274, form named): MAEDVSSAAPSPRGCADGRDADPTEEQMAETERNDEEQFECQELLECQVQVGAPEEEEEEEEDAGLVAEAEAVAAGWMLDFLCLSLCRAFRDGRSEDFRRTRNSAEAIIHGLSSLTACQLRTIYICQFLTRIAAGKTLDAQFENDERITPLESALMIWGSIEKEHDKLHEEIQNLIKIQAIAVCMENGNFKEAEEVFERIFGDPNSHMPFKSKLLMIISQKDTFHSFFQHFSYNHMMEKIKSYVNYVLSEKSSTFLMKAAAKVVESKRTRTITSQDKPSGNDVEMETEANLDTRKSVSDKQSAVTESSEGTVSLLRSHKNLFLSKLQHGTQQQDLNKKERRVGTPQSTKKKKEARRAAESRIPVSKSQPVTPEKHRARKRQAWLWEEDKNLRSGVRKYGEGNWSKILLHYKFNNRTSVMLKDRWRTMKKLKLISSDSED
UniProt Q15554, residues 43-542: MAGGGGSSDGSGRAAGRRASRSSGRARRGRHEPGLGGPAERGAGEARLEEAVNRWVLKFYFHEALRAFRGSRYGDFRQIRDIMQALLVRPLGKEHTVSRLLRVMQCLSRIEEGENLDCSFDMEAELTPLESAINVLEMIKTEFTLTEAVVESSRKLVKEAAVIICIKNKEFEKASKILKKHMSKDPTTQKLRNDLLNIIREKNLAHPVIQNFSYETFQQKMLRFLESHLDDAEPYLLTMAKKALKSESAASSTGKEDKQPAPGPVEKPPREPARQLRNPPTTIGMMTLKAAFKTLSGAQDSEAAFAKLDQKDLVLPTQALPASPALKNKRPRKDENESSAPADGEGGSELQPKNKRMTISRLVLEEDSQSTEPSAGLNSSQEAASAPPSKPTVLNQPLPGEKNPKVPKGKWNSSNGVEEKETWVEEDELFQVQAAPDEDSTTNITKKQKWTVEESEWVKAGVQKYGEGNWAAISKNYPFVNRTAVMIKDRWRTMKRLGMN
UniProt O15392: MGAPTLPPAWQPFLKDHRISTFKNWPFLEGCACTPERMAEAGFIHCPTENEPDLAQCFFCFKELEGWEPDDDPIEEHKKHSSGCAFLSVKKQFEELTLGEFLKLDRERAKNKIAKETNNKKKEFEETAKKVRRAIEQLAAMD
UniProt Q96GD4: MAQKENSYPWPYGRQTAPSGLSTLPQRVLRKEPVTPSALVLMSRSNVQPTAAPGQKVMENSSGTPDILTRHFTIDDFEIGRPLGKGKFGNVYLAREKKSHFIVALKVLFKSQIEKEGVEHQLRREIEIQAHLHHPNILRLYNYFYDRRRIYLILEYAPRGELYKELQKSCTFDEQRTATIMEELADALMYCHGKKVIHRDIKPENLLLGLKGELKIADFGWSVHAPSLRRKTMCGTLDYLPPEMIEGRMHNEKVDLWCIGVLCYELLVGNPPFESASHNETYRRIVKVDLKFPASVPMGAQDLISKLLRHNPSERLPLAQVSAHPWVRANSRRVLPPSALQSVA
UniProt P54132: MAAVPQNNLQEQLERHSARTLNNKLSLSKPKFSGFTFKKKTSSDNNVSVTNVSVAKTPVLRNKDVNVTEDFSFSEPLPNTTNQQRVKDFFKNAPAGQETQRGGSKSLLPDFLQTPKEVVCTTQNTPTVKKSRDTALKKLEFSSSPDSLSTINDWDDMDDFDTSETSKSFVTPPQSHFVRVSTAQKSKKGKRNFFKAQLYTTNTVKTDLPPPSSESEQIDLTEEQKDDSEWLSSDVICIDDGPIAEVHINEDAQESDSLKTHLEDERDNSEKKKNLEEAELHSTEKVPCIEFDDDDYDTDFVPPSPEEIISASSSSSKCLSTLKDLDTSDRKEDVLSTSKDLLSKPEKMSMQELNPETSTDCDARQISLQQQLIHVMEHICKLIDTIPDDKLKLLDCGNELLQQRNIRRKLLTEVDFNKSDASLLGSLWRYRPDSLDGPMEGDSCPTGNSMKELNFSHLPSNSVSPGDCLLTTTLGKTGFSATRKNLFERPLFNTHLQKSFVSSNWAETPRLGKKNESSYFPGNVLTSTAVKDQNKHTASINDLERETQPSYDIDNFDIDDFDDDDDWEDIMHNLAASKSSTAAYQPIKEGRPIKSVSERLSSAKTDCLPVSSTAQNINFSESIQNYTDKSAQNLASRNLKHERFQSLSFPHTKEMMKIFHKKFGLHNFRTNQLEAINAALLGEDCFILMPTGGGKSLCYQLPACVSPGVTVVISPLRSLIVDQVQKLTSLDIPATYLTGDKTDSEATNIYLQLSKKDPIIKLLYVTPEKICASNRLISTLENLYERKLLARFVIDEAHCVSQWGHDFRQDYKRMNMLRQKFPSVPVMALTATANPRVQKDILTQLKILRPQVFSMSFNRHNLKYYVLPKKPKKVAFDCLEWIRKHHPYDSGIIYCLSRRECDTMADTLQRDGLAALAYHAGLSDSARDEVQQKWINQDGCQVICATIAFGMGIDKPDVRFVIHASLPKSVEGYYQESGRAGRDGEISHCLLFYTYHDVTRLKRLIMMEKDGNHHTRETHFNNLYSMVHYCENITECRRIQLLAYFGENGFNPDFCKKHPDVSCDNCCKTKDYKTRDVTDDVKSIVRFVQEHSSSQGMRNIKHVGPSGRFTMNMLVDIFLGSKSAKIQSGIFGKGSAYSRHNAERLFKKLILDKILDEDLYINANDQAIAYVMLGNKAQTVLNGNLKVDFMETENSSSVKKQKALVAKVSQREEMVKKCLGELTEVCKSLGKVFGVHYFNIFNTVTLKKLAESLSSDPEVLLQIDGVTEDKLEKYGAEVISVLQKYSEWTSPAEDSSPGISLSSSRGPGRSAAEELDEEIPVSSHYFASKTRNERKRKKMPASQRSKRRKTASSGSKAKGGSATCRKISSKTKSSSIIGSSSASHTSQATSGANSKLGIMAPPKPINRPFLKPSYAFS
UniProt Q9NQS7: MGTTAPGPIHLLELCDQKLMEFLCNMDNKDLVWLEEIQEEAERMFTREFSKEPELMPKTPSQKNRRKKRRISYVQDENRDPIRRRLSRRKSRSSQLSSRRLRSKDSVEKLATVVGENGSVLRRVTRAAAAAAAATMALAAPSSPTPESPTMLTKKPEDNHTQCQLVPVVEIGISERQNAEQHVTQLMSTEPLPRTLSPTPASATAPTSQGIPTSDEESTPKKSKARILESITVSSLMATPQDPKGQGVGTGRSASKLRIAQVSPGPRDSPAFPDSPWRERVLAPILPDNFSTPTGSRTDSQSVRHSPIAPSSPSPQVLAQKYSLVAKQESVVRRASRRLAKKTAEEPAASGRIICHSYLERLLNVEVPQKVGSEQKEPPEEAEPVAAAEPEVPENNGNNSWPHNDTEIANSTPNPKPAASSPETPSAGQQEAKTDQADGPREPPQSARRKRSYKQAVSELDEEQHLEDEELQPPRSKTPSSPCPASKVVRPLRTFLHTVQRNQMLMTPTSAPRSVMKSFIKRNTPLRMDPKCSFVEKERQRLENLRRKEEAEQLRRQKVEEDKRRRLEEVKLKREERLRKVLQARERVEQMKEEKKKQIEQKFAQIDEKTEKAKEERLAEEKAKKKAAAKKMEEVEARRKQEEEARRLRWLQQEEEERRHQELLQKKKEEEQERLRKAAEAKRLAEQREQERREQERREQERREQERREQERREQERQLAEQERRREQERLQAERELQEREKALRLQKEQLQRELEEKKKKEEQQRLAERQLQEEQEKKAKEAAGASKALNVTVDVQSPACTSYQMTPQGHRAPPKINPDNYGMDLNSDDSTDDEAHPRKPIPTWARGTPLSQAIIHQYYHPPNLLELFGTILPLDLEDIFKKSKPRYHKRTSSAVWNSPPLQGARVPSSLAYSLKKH

The target of test [1] is TRF1 (endogenous) (human (endogenous in HT1080 6TG)) (UniProt P54274). Put plainly: condition: only asynchronous cultures (no nocodazole); co-IP; endogenous TRF1 immunoprecipitated from asynchronous HT1080 6TG (no nocodazole); immunoblots. (Immunoblotting shows a protein as a band on a membrane.)
Test [2] shares this target. Description: co-IP; endogenous TRF1 immunoprecipitated from HT1080 6TG treated 16 h with 150 ng/mL nocodazole (mitotic arrest); immunoblots.
The target in test [3] is Flag-TRF1^shR-ΔHD (human) (UniProt P54274). Put plainly: co-IP; anti-Flag immunoprecipitation from TRF1 shRNA HT1080 6TG expressing Flag-TRF1 alleles, thymidine block and release into 150 ng/mL nocodazole for 16 h; immunoblots.
Another test deals with Flag-TRF1^shR-2D (human) (UniProt P54274). The description is as above.
In test [4] the target is Flag-TRF1^shR-WT (human) (UniProt P54274). Described as above.
The target in another test is Flag-TRF1^shR-2A (human) (UniProt P54274). The test is described as above.
The target in a further test is Myc-TRF2 (human) (UniProt Q15554). Description: co-IP; Flag-TRF1 or Myc-TRF2 immunoprecipitated from extracts of mitotically arrested HT1080 6TG, extracts treated with Benzonase (50 U/mL, on ice) before the co-IP; immunoblots.
Test [5] deals with Flag-TRF1^shR-WT (human) (UniProt P54274). Described as above.

No constants are given. Whether binding was seen depends on the method and setting. In cells and extracts the contact can be indirect. Some results given as binding are weak or reduced against the parent protein; the word gives no strength.

Consider Survivin (from UniProt O15392 1-142), for which the binding entry in test [1] was “no binding”; in test [2] it was “binds”; in test [3] it was “no binding”; with Flag-TRF1^shR-2D (human), “binds”; with Flag-TRF1^shR-WT (human) [4], “binds”; with Flag-TRF1^shR-2A (human), “no binding”.
Consider “Aurora Kinase B (from UniProt Q96GD4 1-344) (enzyme)”, for which the binding entry in test [1] is given as “no binding”; with Myc-TRF2 (human) it was “binds”; with Flag-TRF1^shR-WT (human) [5], “binds”; in test [2], “binds”; in test [3], “no binding”; with Flag-TRF1^shR-2D (human), “binds”. Moreover, the binding result in the test with Flag-TRF1^shR-WT (human) [4] is listed as “binds”; with Flag-TRF1^shR-2A (human), “no binding”.
Take “BLM (from UniProt P54132 1-1417) (enzyme)”: the binding result in test [1] is listed as “no binding”; in the test with Myc-TRF2 (human), “binds”; with Flag-TRF1^shR-WT (human) [5], “binds”; in test [2], “binds”; in test [3], “binds”; with Flag-TRF1^shR-2D (human), “binds”. Moreover, the binding entry in the test with Flag-TRF1^shR-WT (human) [4] and in the test with Flag-TRF1^shR-2A (human) was “binds” each time.
Take INCENP (from UniProt Q9NQS7 1-918): the binding entry in test [3] is listed as “no binding”; with Flag-TRF1^shR-2D (human), “binds”; in the test with Flag-TRF1^shR-2A (human), “no binding”.

B1: TOP3A (enzyme, UniProt Q13472 1-1001)
chain: MIFPVARYALRWLRRPEDRAFSRAAMEMALRGVRKVLCVAEKNDAAKGIADLLSNGRMRRREGLSKFNKIYEFDYHLYGQNVTMVMTSVSGHLLAHDFQMQFRKWQSCNPLVLFEAEIEKYCPENFVDIKKTLERETRQCQALVIWTDCDREGENIGFEIIHVCKAVKPNLQVLRARFSEITPHAVRTACENLTEPDQRVSDAVDVRQELDLRIGAAFTRFQTLRLQRIFPEVLAEQLISYGSCQFPTLGFVVERFKAIQAFVPEIFHRIKVTHDHKDGIVEFNWKRHRLFNHTACLVLYQLCVEDPMATVVEVRSKPKSKWRPQALDTVELEKLASRKLRINAKETMRIAEKLYTQGYISYPRTETNIFPRDLNLTVLVEQQTPDPRWGAFAQSILERGGPTPRNGNKSDQAHPPIHPTKYTNNLQGDEQRLYEFIVRHFLACCSQDAQGQETTVEIDIAQERFVAHGLMILARNYLDVYPYDHWSDKILPVYEQGSHFQPSTVEMVDGETSPPKLLTEADLIALMEKHGIGTDATHAEHIETIKARMYVGLTPDKRFLPGHLGMGLVEGYDSMGYEMSKPDLRAELEADLKLICDGKKDKFVVLRQQVQKYKQVFIEAVAKAKKLDEALAQYFGNGTELAQQEDIYPAMPEPIRKCPQCNKDMVLKTKKNGGFYLSCMGFPECRSAVWLPDSVLEASRDSSVCPVCQPHPVYRLKLKFKRGSLPPTMPLEFVCCIGGCDDTLREILDLRFSGGPPRASQPSGRLQANQSLNRMDNSQHPQPADSRQTGSSKALAQTLPPPTAAGESNSVTCNCGQEAVLLTVRKEGPNRGRQFFKCNGGSCNFFLWADSPNPGAGGPPALAYRPLGASLGCPPGPGIHLGGFGNPGDGSGSGTSCLCSQPSVTRTVQKDGPNKGRQFHTCAKPREQQCGFFQWVDENTAPGTSGAPSWTGDRGRTLESEARSKRPRASSSDMGSTAKKPRKCSLCHQPGHTRPFCPQNR
B1: the binding result (in test [3]; in the test with Flag-TRF1^shR-2D (human); with Flag-TRF1^shR-WT (human) [4]; with Flag-TRF1^shR-2A (human)) was “binds” throughout.
